Assay results reported in the supplement of paper PMC12067093, “Discovery and optimisation of a covalent ligand for TRIM25 and its application to targeted protein ubiquitination” (Chemical Science, 2025).
About 21,000 targets were measured; listed, in parts, are those with the largest changes and a random draw of the rest.

compound: CC1Cc2ccccc2N1C(=O)C1CCCN(C1)C(=O)CCl (mixture of isomers) [TRIM25 ligand 11 (diastereomer mixture)]; assay: probe-labelled cysteine peptide fold change vs DMSO (competition) (log2 fold change); higher = less target engagement (more negative = stronger competition); settings: 10 µM; THP-1; incubation time: 4 h
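Further: competitive chemoproteomic profiling in live THP-1 cells with an iodoacetamide desthiobiotin (IA-DTB) probe, comparing probe-labelled peptide intensities in compound-treated cells against DMSO-treated controls.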

Sequence of UniProt Q9NUL3 (Q9NUL3 whole entry): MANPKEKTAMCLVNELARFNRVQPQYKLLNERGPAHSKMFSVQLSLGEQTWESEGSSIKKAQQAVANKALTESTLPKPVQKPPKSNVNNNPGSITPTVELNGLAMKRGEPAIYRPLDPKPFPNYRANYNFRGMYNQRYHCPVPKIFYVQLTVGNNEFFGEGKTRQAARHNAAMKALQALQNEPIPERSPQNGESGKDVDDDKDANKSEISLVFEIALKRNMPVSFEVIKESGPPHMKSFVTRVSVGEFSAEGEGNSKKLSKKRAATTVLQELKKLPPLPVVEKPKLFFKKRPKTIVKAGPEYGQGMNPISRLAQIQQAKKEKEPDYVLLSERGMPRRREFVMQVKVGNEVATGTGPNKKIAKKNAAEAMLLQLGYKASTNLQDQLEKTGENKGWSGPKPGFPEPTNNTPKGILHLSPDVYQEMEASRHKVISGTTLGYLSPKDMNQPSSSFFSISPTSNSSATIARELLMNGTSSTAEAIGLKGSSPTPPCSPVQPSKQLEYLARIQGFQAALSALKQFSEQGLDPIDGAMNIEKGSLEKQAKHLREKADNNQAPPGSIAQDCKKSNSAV
Sequence of UniProt Q9BQ61 (Q9BQ61 whole entry): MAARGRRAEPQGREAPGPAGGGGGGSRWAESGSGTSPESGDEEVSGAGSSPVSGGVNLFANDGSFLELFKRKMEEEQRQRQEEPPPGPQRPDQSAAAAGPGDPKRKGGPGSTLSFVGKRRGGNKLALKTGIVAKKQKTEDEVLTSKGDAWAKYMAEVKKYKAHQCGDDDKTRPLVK
Sequence of UniProt Q99805 (Q99805 whole entry, looked up): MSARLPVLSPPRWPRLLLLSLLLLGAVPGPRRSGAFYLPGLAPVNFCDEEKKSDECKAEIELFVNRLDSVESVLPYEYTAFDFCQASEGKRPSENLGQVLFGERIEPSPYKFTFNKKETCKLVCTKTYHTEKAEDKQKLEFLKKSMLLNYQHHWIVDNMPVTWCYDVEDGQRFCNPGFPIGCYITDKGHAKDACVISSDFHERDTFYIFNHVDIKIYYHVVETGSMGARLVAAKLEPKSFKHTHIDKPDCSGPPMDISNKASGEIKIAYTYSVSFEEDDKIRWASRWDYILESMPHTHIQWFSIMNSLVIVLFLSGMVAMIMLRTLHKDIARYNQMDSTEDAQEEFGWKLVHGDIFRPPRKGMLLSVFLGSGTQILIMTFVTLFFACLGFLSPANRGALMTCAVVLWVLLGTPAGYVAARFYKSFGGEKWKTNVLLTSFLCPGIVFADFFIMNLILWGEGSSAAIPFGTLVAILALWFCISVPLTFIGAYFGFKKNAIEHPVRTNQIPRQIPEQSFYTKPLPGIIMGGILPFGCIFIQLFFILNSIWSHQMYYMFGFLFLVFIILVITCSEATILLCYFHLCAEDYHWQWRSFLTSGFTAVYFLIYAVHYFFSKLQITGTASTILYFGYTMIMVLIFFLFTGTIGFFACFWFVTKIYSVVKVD
Sequence of UniProt Q9Y5L0 (Q9Y5L0 whole entry, looked up): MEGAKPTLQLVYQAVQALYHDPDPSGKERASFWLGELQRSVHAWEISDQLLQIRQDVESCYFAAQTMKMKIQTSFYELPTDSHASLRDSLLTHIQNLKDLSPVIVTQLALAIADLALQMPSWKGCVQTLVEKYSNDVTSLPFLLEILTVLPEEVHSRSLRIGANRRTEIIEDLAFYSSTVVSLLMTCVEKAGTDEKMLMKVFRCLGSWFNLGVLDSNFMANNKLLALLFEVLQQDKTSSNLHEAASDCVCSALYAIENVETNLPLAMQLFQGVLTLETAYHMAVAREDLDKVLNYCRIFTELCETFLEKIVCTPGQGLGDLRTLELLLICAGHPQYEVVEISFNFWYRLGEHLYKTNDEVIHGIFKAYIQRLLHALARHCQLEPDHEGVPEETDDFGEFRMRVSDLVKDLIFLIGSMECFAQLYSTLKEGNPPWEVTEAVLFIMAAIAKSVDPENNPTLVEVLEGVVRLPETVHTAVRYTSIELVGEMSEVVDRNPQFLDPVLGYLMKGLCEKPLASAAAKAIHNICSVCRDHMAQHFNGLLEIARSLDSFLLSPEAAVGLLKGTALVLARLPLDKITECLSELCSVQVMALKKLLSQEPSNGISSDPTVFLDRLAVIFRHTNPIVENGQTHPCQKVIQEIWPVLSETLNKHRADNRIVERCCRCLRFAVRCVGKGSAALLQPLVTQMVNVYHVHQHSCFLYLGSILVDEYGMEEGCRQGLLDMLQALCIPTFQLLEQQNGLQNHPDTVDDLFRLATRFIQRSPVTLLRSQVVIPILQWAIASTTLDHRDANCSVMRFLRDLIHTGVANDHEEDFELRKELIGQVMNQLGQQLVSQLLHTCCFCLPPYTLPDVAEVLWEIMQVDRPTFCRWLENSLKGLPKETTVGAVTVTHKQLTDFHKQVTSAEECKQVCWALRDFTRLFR
Sequence of UniProt Q9NXH8 (Q9NXH8 whole entry, looked up): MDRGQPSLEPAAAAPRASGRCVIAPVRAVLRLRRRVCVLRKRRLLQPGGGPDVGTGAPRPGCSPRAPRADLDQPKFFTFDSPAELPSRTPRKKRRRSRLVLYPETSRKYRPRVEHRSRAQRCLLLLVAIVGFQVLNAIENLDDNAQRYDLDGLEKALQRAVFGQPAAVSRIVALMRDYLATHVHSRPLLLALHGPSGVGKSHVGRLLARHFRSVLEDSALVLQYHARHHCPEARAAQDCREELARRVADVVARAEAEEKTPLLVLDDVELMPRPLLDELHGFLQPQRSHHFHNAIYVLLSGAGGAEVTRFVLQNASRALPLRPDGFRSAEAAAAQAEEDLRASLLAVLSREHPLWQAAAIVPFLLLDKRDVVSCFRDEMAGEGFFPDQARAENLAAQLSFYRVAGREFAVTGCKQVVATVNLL
Sequence of UniProt P60174 (P60174 whole entry, looked up): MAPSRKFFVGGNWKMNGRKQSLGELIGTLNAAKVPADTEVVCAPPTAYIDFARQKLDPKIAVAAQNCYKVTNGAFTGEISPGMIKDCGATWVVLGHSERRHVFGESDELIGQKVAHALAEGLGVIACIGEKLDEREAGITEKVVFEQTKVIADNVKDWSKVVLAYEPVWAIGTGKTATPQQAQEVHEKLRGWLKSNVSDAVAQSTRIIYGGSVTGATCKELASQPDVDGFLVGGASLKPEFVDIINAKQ
Sequence of UniProt O75683 (O75683 whole entry): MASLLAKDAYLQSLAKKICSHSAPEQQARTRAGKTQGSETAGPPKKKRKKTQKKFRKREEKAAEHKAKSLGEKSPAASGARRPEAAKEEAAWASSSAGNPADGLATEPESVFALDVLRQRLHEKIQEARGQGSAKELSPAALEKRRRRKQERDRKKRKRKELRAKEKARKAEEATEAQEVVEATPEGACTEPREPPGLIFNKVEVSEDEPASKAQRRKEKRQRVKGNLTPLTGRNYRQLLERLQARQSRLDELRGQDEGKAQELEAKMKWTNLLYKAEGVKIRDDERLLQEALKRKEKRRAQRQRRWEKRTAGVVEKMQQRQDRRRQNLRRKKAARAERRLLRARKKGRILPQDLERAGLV
Sequence of UniProt A5PLN9 (A5PLN9 whole entry, looked up): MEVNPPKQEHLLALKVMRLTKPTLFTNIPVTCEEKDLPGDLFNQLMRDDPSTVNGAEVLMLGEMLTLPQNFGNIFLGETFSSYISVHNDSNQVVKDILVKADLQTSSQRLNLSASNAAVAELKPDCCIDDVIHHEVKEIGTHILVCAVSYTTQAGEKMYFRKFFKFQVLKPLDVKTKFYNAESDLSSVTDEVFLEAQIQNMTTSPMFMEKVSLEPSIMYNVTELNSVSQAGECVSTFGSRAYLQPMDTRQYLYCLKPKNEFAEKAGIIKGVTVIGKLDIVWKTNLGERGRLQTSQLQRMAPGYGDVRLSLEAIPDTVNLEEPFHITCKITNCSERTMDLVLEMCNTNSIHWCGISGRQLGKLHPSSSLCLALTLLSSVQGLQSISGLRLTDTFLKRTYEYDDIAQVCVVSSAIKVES
Sequence of UniProt Q12962 (Q12962 whole entry): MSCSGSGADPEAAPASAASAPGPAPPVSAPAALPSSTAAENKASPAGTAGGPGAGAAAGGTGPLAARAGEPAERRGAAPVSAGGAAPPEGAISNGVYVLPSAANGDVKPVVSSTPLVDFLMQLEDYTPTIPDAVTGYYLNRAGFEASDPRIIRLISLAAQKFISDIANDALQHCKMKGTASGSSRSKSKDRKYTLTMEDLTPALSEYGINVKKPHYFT
Sequence of UniProt Q8IYB8 (Q8IYB8 whole entry, looked up): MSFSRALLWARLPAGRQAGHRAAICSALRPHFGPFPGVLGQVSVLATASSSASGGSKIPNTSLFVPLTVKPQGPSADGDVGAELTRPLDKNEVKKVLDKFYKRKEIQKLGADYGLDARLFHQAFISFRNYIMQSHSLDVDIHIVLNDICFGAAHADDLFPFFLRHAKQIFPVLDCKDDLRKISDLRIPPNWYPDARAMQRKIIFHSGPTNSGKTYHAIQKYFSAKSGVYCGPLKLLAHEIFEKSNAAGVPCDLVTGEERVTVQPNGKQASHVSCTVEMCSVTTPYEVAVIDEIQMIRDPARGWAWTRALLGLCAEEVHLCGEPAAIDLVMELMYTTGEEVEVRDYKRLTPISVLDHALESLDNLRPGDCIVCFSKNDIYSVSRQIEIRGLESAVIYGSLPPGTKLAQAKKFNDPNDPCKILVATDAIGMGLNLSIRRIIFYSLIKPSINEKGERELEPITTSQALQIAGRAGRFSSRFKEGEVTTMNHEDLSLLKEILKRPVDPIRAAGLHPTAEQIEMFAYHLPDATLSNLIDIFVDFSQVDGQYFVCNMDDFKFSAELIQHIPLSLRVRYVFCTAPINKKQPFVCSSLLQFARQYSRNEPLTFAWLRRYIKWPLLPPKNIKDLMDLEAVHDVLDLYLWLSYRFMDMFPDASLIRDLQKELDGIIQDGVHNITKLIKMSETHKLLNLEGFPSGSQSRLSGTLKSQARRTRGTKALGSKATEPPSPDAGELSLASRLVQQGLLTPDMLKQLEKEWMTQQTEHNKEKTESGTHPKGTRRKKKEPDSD

Target	probe-labelled cysteine peptide fold change
TAF2_Q6P1X5_357_CLAQSLAQQFFGCFISR (UniProt Q6P1X5)	0.121
TES_Q9UGI8_22_MGLGHEQGFGAPCLK (UniProt Q9UGI8)	0.0368
TAF10_Q12962_174_FISDIANDALQHCK (UniProt Q12962)	-0.359
SVIL_O95425_1966_VTIHECDEGSEPLGFWDALGR (UniProt O95425)	-0.0958
TRAPPC13_A5PLN9_32_LTKPTLFTNIPVTCEEK (UniProt A5PLN9)	-0.00439
ST13_P50502_209_LLGHWEEAAHDLALACKLDYDEDASAMLK (UniProt P50502)	-0.723
SURF6_O75683_189_KAEEATEAQEVVEATPEGACTEPR (UniProt O75683)	-0.0126
TPI1_P60174_124_DCGATWVVLGHSERR (UniProt P60174)	-0.61
TRIP6_Q15654_362+365+368_AYHPGCFTCVVCHR (UniProt Q15654)	-0.0511
TOR4A_Q9NXH8_62_LLQPGGGPDVGTGAPRPGCSPR (UniProt Q9NXH8)	-0.105
TARSL2_A2RTX5_546_FQQDDAHIFCTVEQIEEEIK (UniProt A2RTX5)	0.614
STAU2_Q9NUL3_11_TAMCLVNELAR (UniProt Q9NUL3)	-0.112
TNPO3_Q9Y5L0_793_DANCSVMR (UniProt Q9Y5L0)	0.0522
SUPV3L1_Q8IYB8_418_FNDPNDPCK (UniProt Q8IYB8)	0.0828
TM9SF2_Q99805_250_HTHIDKPDCSGPPMDISNK (UniProt Q99805)	-0.0327
TANC1_Q9C0D5_800_MDALSCFLIK (UniProt Q9C0D5)	0.0833
TRIR_Q9BQ61_165_AHQCGDDDK (UniProt Q9BQ61)	-0.469

same assay, conditions: 50 µM; THP-1; incubation time: 4 h

Target	probe-labelled cysteine peptide fold change
THOC2_Q8NI27_743_DALLDHDLALPLCLLMAQQR (UniProt Q8NI27)	0.192
SSH3_Q8TE77_634_TQAFQEQEQGQGQGQGEPCISSTPR (UniProt Q8TE77)	-0.167
TAF10_Q12962_174_FISDIANDALQHCK (UniProt Q12962)	-0.583
SVIL_O95425_1966_VTIHECDEGSEPLGFWDALGR (UniProt O95425)	-0.407
TRAPPC13_A5PLN9_32_LTKPTLFTNIPVTCEEK (UniProt A5PLN9)	0.0542
SUCLG1_P53597_172_LIGPNCPGVINPGECK (UniProt P53597)	0.101
TADA2B_Q86TJ2_32+35_CTECQDIELCPECFSAGAEIGHHR (UniProt Q86TJ2)	0.59
TET3_O43151_1381_GKPWSPCK (UniProt O43151)	-0.338
SURF6_O75683_189_KAEEATEAQEVVEATPEGACTEPR (UniProt O75683)	-0.199
TIAL1_Q01085_205+209_NCTVYCGGIASGLTDQLMR (UniProt Q01085)	-0.693
TPI1_P60174_124_DCGATWVVLGHSERR (UniProt P60174)	-0.325
TBCD_Q9BTW9_457_GACSVGTNVR (UniProt Q9BTW9)	0.142
THBS1_P07996_754_IPDDRDNCPFHYNPAQYDYDRDDVGDR (UniProt P07996)	0.298
TLE1_Q04724_47_IKEEFQFLQAQYHSLKLECEK<|>TLE2_Q04725_46_IKEEFQFLQAQYHSLKLECEK (UniProt Q04725+Q04724)	-0.216
TOR4A_Q9NXH8_62_LLQPGGGPDVGTGAPRPGCSPR (UniProt Q9NXH8)	-0.0981
STAU2_Q9NUL3_11_TAMCLVNELAR (UniProt Q9NUL3)	-0.0959
TNPO3_Q9Y5L0_793_DANCSVMR (UniProt Q9Y5L0)	-0.00663
SUPV3L1_Q8IYB8_418_FNDPNDPCK (UniProt Q8IYB8)	0.0389
TMEM94_Q12767_381_CIWGHFLR (UniProt Q12767)	-0.0543
TCEAL3_Q969E4_44_TECEGKREDEGEPGDEGQLEDEGSQEK (UniProt Q969E4)	-0.51
TM9SF2_Q99805_250_HTHIDKPDCSGPPMDISNK (UniProt Q99805)	-0.239
TGFBRAP1_Q8WUH2_32_VNIECVECCGR (UniProt Q8WUH2)	0.0274
TRIR_Q9BQ61_165_AHQCGDDDK (UniProt Q9BQ61)	-0.63
TOP2B_Q02880-2_7_SGGCGAGAGVGGGNGALTWVNNAAK (UniProt Q02880)	-0.182
TDRD7_Q8NHU6_284_EDLNQGILQQFEHWPHICTVEK (UniProt Q8NHU6)	-0.057
